The full ranking holds about 33,000 sequences; the median of “E-score (-0.5 to 0.5)” is about -0.021, and the highest 2% start at about 0.32. Some of the results follow.
biological target: T1, Zap1 (UniProt P47043); assay: PBM E-score (8-mer binding enrichment) (E-score (-0.5 to 0.5)); higher = stronger / more preferred TF binding; most listed sequences are background and not binding sites; details: protein concentration: 200 nM; construct: GST-full length
T1 sequence: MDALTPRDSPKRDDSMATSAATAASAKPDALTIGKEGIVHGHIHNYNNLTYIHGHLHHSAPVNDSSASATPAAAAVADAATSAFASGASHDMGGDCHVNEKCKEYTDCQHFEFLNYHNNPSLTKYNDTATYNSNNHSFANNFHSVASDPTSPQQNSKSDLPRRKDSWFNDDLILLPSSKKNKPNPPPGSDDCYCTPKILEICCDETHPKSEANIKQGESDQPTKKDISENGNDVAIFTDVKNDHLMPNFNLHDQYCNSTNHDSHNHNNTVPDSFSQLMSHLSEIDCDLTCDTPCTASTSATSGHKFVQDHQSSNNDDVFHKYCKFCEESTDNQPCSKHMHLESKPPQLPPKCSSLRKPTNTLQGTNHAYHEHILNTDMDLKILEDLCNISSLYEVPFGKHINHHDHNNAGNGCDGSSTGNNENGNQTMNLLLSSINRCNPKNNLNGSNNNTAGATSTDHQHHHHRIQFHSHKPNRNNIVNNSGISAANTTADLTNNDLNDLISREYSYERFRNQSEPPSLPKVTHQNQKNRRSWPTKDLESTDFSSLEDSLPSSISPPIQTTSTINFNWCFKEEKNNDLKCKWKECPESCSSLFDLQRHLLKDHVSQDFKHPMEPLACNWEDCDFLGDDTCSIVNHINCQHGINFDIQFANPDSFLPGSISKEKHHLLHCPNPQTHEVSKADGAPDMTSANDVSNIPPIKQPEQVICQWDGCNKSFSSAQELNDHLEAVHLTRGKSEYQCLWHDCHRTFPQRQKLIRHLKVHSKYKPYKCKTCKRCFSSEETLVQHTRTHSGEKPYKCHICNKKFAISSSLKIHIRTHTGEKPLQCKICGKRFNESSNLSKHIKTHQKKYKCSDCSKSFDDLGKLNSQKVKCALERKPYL
Method: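 Universal 'all 10-mer' protein binding microarrays (Agilent AMADID 015681) probed with GST-tagged S. cerevisiae TFs (full-length or DBD) made by in vitro transcription/translation (PURExpress), about 100-200 nM. Bound TF was detected with fluorescent anti-GST. Each ungapped 8-mer (which stands for itself and its reverse complement) is scored by the PBM enrichment score (E-score), a modified Wilcoxon-Mann-Whitney statistic from -0.5 to +0.5, computed with the Universal PBM Analysis Suite. Scale: above 0.35 generally sequence-specific binding.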

Sequence | PBM E-score
GGCATGCA | -0.0897
GTTTACAA | 0.23
TCCGCCAA | -0.084
CTCATTAC | 0.175
ACTTGCTG | -0.0261
ACGGCCTC | 0.0852
ATTATACG | 0.0915
ATGGACCC | 0.249
AACCCTAC | 0.357
GGCTCGTA | 0.0967
TACTACGA | 0.18
TAACCCGA | 0.345
CCAGACAA | 0.0344
TAGGGTGA | 0.299
TCCTCTAA | -0.0176
CTACCCTA | 0.291
CTGAAGAC | -0.098
CCGAGTAA | 0.0791
GGTCACAC | 0.294
ACGACTTA | -0.208
GACTGCAC | -0.117
AAGGGATC | 0.0637

Sequence | PBM E-score
ATCCCGTA | 0.0415
CGGAGATA | 0.0308
AGGAGCTA | -0.404
AGTCCAGA | 0.136
CAGCACCG | -0.0742
ACAAATAC | 0.0714
CGTCTCCA | 0.0297
ATCGGGAC | -0.132
CTGTCCTA | -0.16
AACAACCC | 0.408
GATTCGTA | -0.0926
AATTCTGG | 0.0624
CATCGAAG | -0.0537
ATTCGTGC | 0.0351
ACTCTAAG | -0.0542
CGATTGCA | 0.0544
ACTAGTCG | -0.193
CCCCTTAG | 0.107
AAAGGCTT | -0.228
GATTCTTA | 0.177
TGATAGAA | 0.0749
AATGTTGA | -0.106

Sequence | PBM E-score
AAGTGCTG | -0.208
ACTCATTC | -0.0523
GTATATTA | 0.101
AGGTCTAC | -0.0448
CGCTATCC | -0.0484
TCTCCAAA | 0.0387
GCACTCGA | -0.196
CGAATAGA | -0.00013
CCTTGGCG | -0.0237
ACCAGTTC | -0.00783
CATAAGCG | -0.165
ACTTATTA | 0.00789
GAGCTTAA | -0.0983
AGGAGTAA | 0.0217
CTTCCACC | -0.244
CCGGTACG | -0.136
ATCAGGGA | -0.178
AAGTTGGC | -0.122
ATGCTATG | -0.0819
GCTGTTCC | -0.195
GTCCGTAA | 0.175
ATCTAGTA | 0.0981

Sequence | PBM E-score
CCGGAGAA | -0.127
CGTGTGAC | -0.0152
GCCATCCA | -0.197
AGAGGGCA | -0.221
GCGCCCAC | -0.0445
ACGAAACT | 0.0627
ATATACGA | -0.138
ATTCGTCC | 0.133
CGCAGCGC | -0.229
AAAGTGAG | 0.0903
ATAGCGAC | -0.0934
ACATGTCT | -0.0899
AAGCAACG | -0.109
AACCTAGA | 0.289
GAACCGCA | 0.149
ATGACTGA | -0.0766
CTAGTGGA | -0.0431
AATGCTAC | 0.00654
CGCATTCA | -0.0717
GTCTCTTA | -0.0277
